Test results: PubChem BioAssay AID1508642 (National Center for Advancing Translational Sciences (NCATS), 2021)
In all, about 43,000 compounds went through this assay and about 200 (0.47%) were called active. About 12% were inconclusive and are not listed. Calls come from the whole dose curve; as a rule, active = well fitted cell-killing curve with a large enough effect; inconclusive = small, poorly fitted or top-dose-only effect, or effect the other way; inactive = flat fitted curve, though single readings scatter. This is one part of the list.

Test: Cell viability qHTS assay in S16 Pmp22-F2sN cells; note: nearly all actives have a fitted effect of over 65% in size
Details: S16 Pmp22-F2sN Schwann cells viability, CellTiter-Glo, 24 h; series mostly up to 57.5 µM; activity change, negative = cytotoxicity: at the top concentration
In short: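 Used to flag compounds lowering reporter output through toxicity, this quantitative HTS measures ATP-based CellTiter-Glo luminescence in S16 Pmp22-F2sN Schwann cells after 24 h compound exposure at 37C.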
% is set by controls: 0 for no effect and ±100 for the full control effect.

| SMILES | activity change, negative = cytotoxicity |
| --- | --- |
| CCOC(=O)c1ccc(N2C(=O)c3n[nH]c(C)c3C2c2ccc(C(C)C)cc2)cc1 (stereo not given) | inactive: 2.63% |
| CC(C)c1nn2c(=O)cc(COC(=O)c3ccc(NC(=O)c4ccccc4Cl)cc3)nc2s1 | inactive: -2.49% |
| CCOc1ccc(NC(=O)c2oc3ccccc3c2NC(=O)Cc2ccc(OC)c(OC)c2)cc1 | inactive: 6.01% |
| COc1ccc2oc(=O)cc(CN3CCN(C(=O)c4ccccc4)CC3)c2c1 | inactive: -3.38% |
| O=C(Nc1ccc(O)c(-c2nc3ccccc3o2)c1)c1cccs1 | inactive: 14.7% |
| COc1ccccc1CNc1nc(-c2ccco2)nn1S(=O)(=O)c1ccc(C)cc1 | inactive: -11.8% |
| Clc1ccc(CN2CCc3nc(Nc4ccc5c(c4)OCCO5)ncc3C2)cc1 | inactive: 0.847% |
| CCOc1ccccc1CN(CCc1ccc2c(c1)OCO2)Cc1cc(OC)c(OC)cc1OC | inactive: 5.25% |
| CC(C)NC(=O)c1nn(C)c2c1CS(=O)(=O)c1ccccc1-2 | inactive: -4.56% |
| COC(=O)c1cc(Cl)ccc1NC(=O)Cn1c(C)cc(C)c(C#N)c1=O | inactive: -0.151% |
| O=C(c1ccc(F)cc1)N1c2ncnn2C2(CCCCC2)[C@@H]2CCCC[C@@H]21 | inactive: -21.2% |
| COc1ccc(CNC(=O)C(=O)NCC(c2cccs2)S(=O)(=O)c2ccc(C)cc2)cc1 (stereo not given) | inactive: 18.3% |
| CCn1c(SCC(=O)Nc2cccc(Cl)c2)nnc1-c1nonc1NC(C)=O | inactive: -0.531% |
| Cc1ccc(-c2nsc(NC(=O)c3oc4cc(C)c(Cl)cc4c3C)n2)cc1 | inactive: -0.844% |
| Cc1ccccc1C(=O)NCc1ccc2c(c1)CCN2C(=O)c1ccccc1 | inactive: 0.879% |
| CCn1c(=O)c2sccc2n2c(CCCC(=O)N3CCN(c4ccccc4OC)CC3)nnc12 | inactive: 9.11% |
| CCOC(=O)N1CCC(NC(=O)c2cnn(-c3cccc(C)c3)c2C2CCN(C(=O)OC(C)(C)C)CC2)CC1 | inactive: 10.4% |
| CC(=O)c1cc(-c2ccc(F)cc2)n(CCC(=O)NCc2ccc(C)cc2)c1C | inactive: -1.64% |
| CC(=O)c1ccc(N2CCN(C(=O)Cn3ncc4c3-c3ccccc3OC4)CC2)cc1 | inactive: -1.48% |
| CCOc1ccc(NC(=O)c2cnn3c(C(F)F)cc(-c4ccc(C)cc4)nc23)cc1 | inactive: 23.3% |
| Cc1c(Cl)cccc1NC(=O)CN1C(=O)CSc2ccc(S(=O)(=O)N3CCCC3)cc21 | inactive: -17.6% |
| O=c1cc(COc2cccc(C(F)(F)F)c2)nc2sc3c(n12)CCCC3 | inactive: 9.83% |
| Cc1ccc(-n2ncc(C(=O)N3CCN(C4CCCCC4)CC3)c2C2CCN(C(=O)OC(C)(C)C)CC2)cc1 | inactive: 3.84% |
| CCc1ccc(Sc2cc(C(=O)NCCCN3CCCC(C)C3)c3ccccc3n2)cc1 (stereo not given) | inactive: -6.83% |

| SMILES | activity change, negative = cytotoxicity |
| --- | --- |
| Cc1ccccc1CCNCc1c(C(=O)O)c(C)n(Cc2c(F)cccc2Cl)c1C | inactive: -18% |
| CCCCCCNc1ncnc2c1sc1nc(N3CCOCC3)c3c(c12)CCCC3 | inactive: 2.92% |
| COc1ccc(NC(=O)Cn2c(=O)n(CC3CCCO3)c(=O)c3ccccc32)cc1 (stereo not given) | inactive: 10.5% |
| CCCCSCCCNC(=O)c1cc(-c2cccnc2)nc2ccc(S(=O)(=O)N3CCC(C)CC3)cc12 | inactive: -7.17% |
| O=C(Nc1ccc(Oc2ccccc2)cc1)C1CCN(S(=O)(=O)c2ccccc2)CC1 | inactive: -1.05% |
| Cc1oc2ccc(O)c(CN3CCN(Cc4ccccc4)CC3)c2c1C(=O)Nc1cccc(Cl)c1C | inactive: 22.3% |
| CCCN(C(=O)c1nn(-c2ccc(C)cc2)c(=O)c2c1c1ccccc1n2C)c1ccccc1C | inactive: -4.89% |
| COc1ccc(Cl)cc1NC(=O)c1nc(S(C)(=O)=O)ncc1N(Cc1ccc(C)cc1)Cc1ccco1 | inactive: 1.67% |
| Cc1cc2oc(C(=O)Nc3ccc(S(=O)(=O)Nc4onc(C)c4C)cc3)cc(=O)c2cc1C | inactive: -6.62% |
| Cc1ccc(C)c(NC(=O)Cn2c(=O)oc3cc(S(=O)(=O)NCc4ccccc4)ccc32)c1 | inactive: -7.58% |
| Cc1cccc(CNC(=O)c2ccc(Cn3c(SCc4ccccc4)nc4cccnc43)cc2)c1 | inactive: -9.32% |
| CCc1ccc2oc(C(=O)Nc3nc(-c4ccccc4)ns3)c(C)c2c1 | inactive: -0.502% |
| Cc1c(C(=O)N(C)C)sc2c1c(=O)n(-c1ccc(F)cc1)c(=O)n2CC(=O)N(C)c1ccccc1 | inactive: 9.81% |
| COc1ccccc1CNC(=O)CCC1N=C2c3ccccc3N=C(SCC(=O)NCCc3ccccc3)N2C1=O (stereo not given) | inactive: 0.0328% |
| Cc1ccccc1C(=O)Nc1sc2c(c1C(=O)N1CCC(C)CC1)CCCC2 | inactive: 7.6% |
| CCOC(=O)c1c(NC(=O)/C=C/c2ccc(OC)cc2)sc2c1CCC(C)C2 (stereo not given) | inactive: 2.92% |
| O=C(CSc1nc(=O)[nH]c2c1CCCC2)NCc1ccc(Cl)cc1 | inactive: 3.92% |
| Cc1cc2n(n1)CCCN2C(=O)Nc1cccc(C)c1C | inactive: 4.84% |
| Cc1cccc(Nc2nc3ccccc3n3c(N)nnc23)c1 | inactive: 0.193% |
| COc1cccc(N2CCN(c3ncc4c(n3)CCN(Cc3ccc(Br)cc3)C4)CC2)c1 | inactive: -1.56% |
| Cc1ccc(Cn2c(=O)c3cccnc3n(Cc3ccc(F)cc3)c2=O)cc1 | inactive: -1.53% |
| CCOC(=O)c1c(NC(=O)c2cc3ccccc3c(=O)o2)sc2c1CCCC2 | inactive: 1.2% |
| COc1ccc(OC)c(NC(=O)CCc2c(C)nc3c(-c4ccccc4)c(C)nn3c2C)c1 | inactive: -16.9% |
| CCSC1=NC2(CCN(C(=O)NC3CCCCC3)CC2)N=C1c1ccc(C)c(C)c1 | inactive: -16.5% |

| SMILES | activity change, negative = cytotoxicity |
| --- | --- |
| Cc1noc(C)c1S(=O)(=O)NCCc1csc2nc(-c3ccc(F)cc3)nn12 | inactive: -11.1% |
| Cc1ccc(NC(=O)[C@H](Cc2ccccc2)N2Cc3ccccc3C2=O)cc1 | inactive: -15.8% |
| Cc1ccc(S(=O)(=O)c2cn(CC(=O)Nc3ccc4c(c3)OCO4)c3ccc(F)cc3c2=O)cc1 | inactive: -3.45% |
| Cc1cccc(CSCCNC(=O)CN(c2ccccc2)S(=O)(=O)N(C)C)c1 | inactive: 3.71% |
| CCOc1ccc(CC(=O)NC2CC(=O)N(c3ccc4c(c3)OCCO4)C2)cc1 (stereo not given) | inactive: 1.9% |
| CCN(c1ccccc1)S(=O)(=O)c1nnc(NC(=O)COc2ccccc2F)s1 | inactive: -3.52% |
| CC(=O)Nc1ccccc1-c1nc2ccccc2n(C(C)C(=O)c2ccc(C)c(C)c2)c1=O (stereo not given) | inactive: 5.83% |
| CC(=O)Nc1ccc(S(=O)(=O)Nc2ccc3c(c2)n(C)c(=O)n3C)c(C)c1 | inactive: -10.3% |
| Cc1cc(C)n(-c2nc3cc(Cl)c(Cl)cc3nc2Nc2c(C)cccc2C)n1 | inactive: 2% |
| COc1ccc(CNC(=O)C(=O)NCC(c2cccnc2)N2CCN(c3ccccc3F)CC2)cc1 (stereo not given) | inactive: -27.9% |
| Cc1ccc(Nc2cc(-c3ccccc3)nc(C)n2)cc1 | inactive: 0.306% |
| COc1ccc(-c2[nH]ncc2C(=O)NCc2ccccc2OC)cc1 | inactive: 9.35% |
| Cc1ccc(NC(=O)CN(C)S(=O)(=O)c2cccc3nsnc23)c(C)c1 | inactive: -16.8% |
| Cc1ccc(C)c(NC(=O)Cn2cnc3nc4c(cc3c2=O)CCCC4)c1 | inactive: -10.8% |
| CCOC(=O)c1cccc(NC(=O)c2ccc3snnc3c2)c1 | inactive: -2.42% |
| COc1ccccc1C(=O)Nc1nc(-c2ccc(Br)cc2)ns1 | inactive: -3.26% |
| Cc1nc2ccn(Cc3cccnc3)c(=O)c2cc1C(=O)N1CCN(c2ccccc2)CC1 | inactive: 12.5% |
| CCc1ccc(-n2c(N3CCN(c4cccc(C)c4C)CC3)nc3ccccc3c2=O)cc1 | inactive: 11.1% |
| COCCNC(=O)CSc1nnc(NC(=O)Nc2ccc(C)cc2)s1 | inactive: 6.27% |
| Cc1ccc(Nc2nc(N)nc(N)c2S(=O)(=O)c2ccccc2)cc1 | inactive: 12.5% |
| COC(=O)c1sccc1S(=O)(=O)N(CC(=O)NCc1ccccc1)c1ccc(C)cc1 | inactive: 22.3% |
| Cc1cc(C)cc(NC(=O)Nc2cccs2)c1 | inactive: 4.5% |
| CCOC(=O)CN1C(C(=O)c2ccccc2)=C(OC(=O)c2ccccc2)c2ccccc2S1(=O)=O | inactive: -6.01% |
| Cc1ccc(NC(=O)C2CCCN(S(=O)(=O)c3ccc(F)cc3)C2)cc1 (stereo not given) | inactive: -1.75% |

| SMILES | activity change, negative = cytotoxicity |
| --- | --- |
| CCCCOc1ccc(C(=O)Nc2onc3c2CCCC3)cc1 | inactive: -4.81% |
| COC(=O)C1CCN(C(c2ccccc2Cl)c2sc3nc(-c4ccco4)nn3c2O)CC1 (stereo not given) | inactive: 9.49% |
| O=C(NCCc1ccccc1)c1cc2sccc2n1Cc1ccc(F)cc1 | inactive: 3.1% |
| CNC(=O)c1c(NC(=O)c2ccc(S(=O)(=O)N3CCCC(C)C3)cc2)sc2c1CCC2 (stereo not given) | inactive: -7.45% |
| COC(=O)c1cccc(CN2C(=O)SC(Nc3ccc(Br)cc3)C2=O)c1 (stereo not given) | inactive: 6.38% |
| CSc1cccc(NC(=O)C(c2ccccc2)N2Cc3ccccc3C2=O)c1 (stereo not given) | inactive: 0.577% |
| Cc1ccc(NC(=O)CSc2nc3ccc(NC(=O)c4ccco4)cc3s2)c(C)c1 | inactive: -11.2% |
| COc1cc(C(=O)NCCS(=O)(=O)N2CCN(c3ccccc3)CC2)cc(OC)c1OC | inactive: 4.31% |
| Cn1cc(S(=O)(=O)c2ccc(Cl)cc2)c(=O)c2cc(F)c(N3CCOCC3)cc21 | inactive: 4.83% |
| COc1ccc(-c2cc3nc(C)c(CCC(=O)N4CCN(c5cc(C)ccc5C)CC4)c(C)n3n2)c(OC)c1 | inactive: 20.6% |
| CC(C)(C)c1ccc(OCC(=O)NC(Cc2c[nH]c3ccccc23)C(=O)O)cc1 (stereo not given) | inactive: -1.95% |
| CCCCn1nc(NC(=O)c2cccc(Cl)c2)c2cc3ccc(C)cc3nc21 | inactive: -2.39% |
| CC(=O)Nc1ccc(NS(=O)(=O)c2cc3c4c(c2)CC(=O)N4CCC3)cc1 | inactive: -14.8% |
| COc1ccc(N2CCN(S(=O)(=O)CCNC(=O)c3ccc(OC(C)C)cc3)CC2)cc1 | inactive: -1.16% |
| COc1ccccc1/C=C/c1nc(C#N)c(N2CCN(c3ccccc3)CC2)o1 | inactive: 19.7% |
| CN(C(=O)CSc1nc2ccc(NC(=O)COc3ccccc3Cl)cc2s1)c1ccccc1 | inactive: 14.2% |
| Cc1ccc(Nc2c(-c3ccccc3O)nc3cc(C)ccn23)cc1 | inactive: -22.8% |
| CCOc1ccc(NC(=O)CN2CCN(CC(=O)Nc3ccc(OC)cc3)CC2)cc1 | inactive: -2.97% |
| CCC(=O)N1CCc2cc(S(=O)(=O)NCCC(=O)Nc3ccc(OC)c(OC)c3)ccc21 | inactive: -5.83% |
| Cc1cccc(N2CCN(c3ncnc4c3c(-c3ccccc3)cn4-c3ccccc3)CC2C)c1 (stereo not given) | inactive: 6.6% |
| COc1ccc(NC(=O)CSc2nnc3c(C)cc4ccccc4n23)cc1 | inactive: 11.1% |
| COc1cc(-c2nnn(CC(=O)NCc3ccccc3)n2)cc(OC)c1OC | inactive: -5.44% |
| Cc1cnc2c(c1SCC(=O)NCc1ccc(F)cc1)c(=O)n(C)c(=O)n2C | inactive: -4.43% |
